# Some of the results follow.
# What was measured:
# Experiment in all cases: glycan array binding signal (z-score within array); higher = stronger binding
# Settings in all cases: glycan notation: IUPAC condensed, linker removed
# [1] = target: Fuc(a1-2)Gal6S(b1-3)GlcNAc
# Summary of the method: (§1)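 Columns mapping to the same glycan were averaged after glycan names were converted to IUPAC-condensed notation. The data come from 3228 arrays in the Consortium for Functional Glycomics database, limited to those with an available protein sequence. Binding is reported as a within-array Z-score averaged across arrays of one protein sequence and across linkers.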
# [2] = target: Fuc(a1-2)Gal6S(b1-3)GlcNAc6S
# Summary of the method: as §1
# [3] = target: Fuc(a1-2)Gal6S(b1-4)Glc
# Summary of the method: as §1
# [4] = target: Fuc(a1-2)Gal6S(b1-4)Glc6S
# Summary of the method: as §1
# [5] = target: Fuc(a1-2)GlcNAc
# Summary of the method: as §1
# [6] = target: Fuc(a1-2)[Gal(a1-3)]Gal
# Summary of the method: as §1
# [7] = target: Fuc(a1-2)[Gal(a1-3)]Gal(b1-3)GalNAc
# Summary of the method: as §1
# [8] = target: Fuc(a1-2)[Gal(a1-3)]Gal(b1-3)GalNAc(b1-3)Gal(a1-4)Gal(b1-4)Glc
# Summary of the method: as §1
# [9] = target: Fuc(a1-2)[Gal(a1-3)]Gal(b1-3)GlcNAc
# Summary of the method: as §1
# [10] = target: Fuc(a1-2)[Gal(a1-3)]Gal(b1-3)GlcNAc(b1-2)Man(a1-3)[Fuc(a1-2)[Gal(a1-3)]Gal(b1-3)GlcNAc(b1-2)Man(a1-6)]Man(b1-4)GlcNAc(b1-4)GlcNAc
# Summary of the method: as §1
# [11] = target: Fuc(a1-2)[Gal(a1-3)]Gal(b1-3)GlcNAc(b1-2)Man(a1-3)[Fuc(a1-2)[Gal(a1-3)]Gal(b1-3)GlcNAc(b1-2)Man(a1-6)]Man(b1-4)GlcNAc(b1-4)[Fuc(a1-6)]GlcNAc
# Summary of the method: as §1
# [12] = target: Fuc(a1-2)[Gal(a1-3)]Gal(b1-3)GlcNAc(b1-3)GalNAc
# Summary of the method: as §1
# [13] = target: Fuc(a1-2)[Gal(a1-3)]Gal(b1-3)GlcNAc(b1-6)GalNAc
# Summary of the method: as §1
# [14] = target: Fuc(a1-2)[Gal(a1-3)]Gal(b1-4)Glc
# Summary of the method: as §1
# [15] = target: Fuc(a1-2)[Gal(a1-3)]Gal(b1-4)GlcNAc
# Summary of the method: as §1
# [16] = target: Fuc(a1-2)[Gal(a1-3)]Gal(b1-4)GlcNAc(b1-2)Man
# Summary of the method: as §1
# [17] = target: Fuc(a1-2)[Gal(a1-3)]Gal(b1-4)GlcNAc(b1-2)Man(a1-3)[Fuc(a1-2)[Gal(a1-3)]Gal(b1-4)GlcNAc(b1-2)Man(a1-6)]Man(b1-4)GlcNAc(b1-4)GlcNAc
# Summary of the method: as §1
# [18] = target: Fuc(a1-2)[Gal(a1-3)]Gal(b1-4)GlcNAc(b1-2)Man(a1-3)[Fuc(a1-2)[Gal(a1-3)]Gal(b1-4)GlcNAc(b1-2)Man(a1-6)]Man(b1-4)GlcNAc(b1-4)[Fuc(a1-6)]GlcNAc
# Summary of the method: as §1
# [19] = target: Fuc(a1-2)[Gal(a1-3)]Gal(b1-4)GlcNAc(b1-3)GalNAc
# Summary of the method: as §1
# [20] = target: Fuc(a1-2)[Gal(a1-3)]Gal(b1-4)GlcNAc(b1-3)[Fuc(a1-2)[Gal(a1-3)]Gal(b1-4)GlcNAc(b1-6)]GalNAc
# Summary of the method: as §1
# [21] = target: Fuc(a1-2)[Gal(a1-3)]Gal(b1-4)GlcNAc(b1-6)GalNAc
# Summary of the method: as §1
# [22] = target: Fuc(a1-2)[Gal(a1-3)]Gal(b1-4)[Fuc(a1-3)]Glc
# Summary of the method: as §1
# [23] = target: Fuc(a1-2)[Gal(a1-3)]Gal(b1-4)[Fuc(a1-3)]GlcNAc
# Summary of the method: as §1
# [24] = target: Fuc(a1-2)[Gal(a1-3)]Gal(b1-4)[Fuc(a1-3)]GlcNAc(b1-3)GalNAc
# Summary of the method: as §1
# [25] = target: Fuc(a1-2)[Gal(a1-4)]Gal(b1-4)GlcNAc
# Summary of the method: as §1
# [26] = target: Fuc(a1-2)[GalNAc(a1-3)]Gal
# Summary of the method: as §1
# [27] = target: Fuc(a1-2)[GalNAc(a1-3)]Gal(b1-3)GalNAc(a1-3)[Fuc(a1-2)]Gal(b1-4)GlcNAc
# Summary of the method: as §1
# [28] = target: Fuc(a1-2)[GalNAc(a1-3)]Gal(b1-3)GalNAc(b1-3)Gal(a1-4)Gal(b1-4)Glc
# Summary of the method: as §1
# [29] = target: Fuc(a1-2)[GalNAc(a1-3)]Gal(b1-3)GlcNAc
# Summary of the method: as §1
# [30] = target: Fuc(a1-2)[GalNAc(a1-3)]Gal(b1-3)GlcNAc(b1-2)Man(a1-3)[Fuc(a1-2)[GalNAc(a1-3)]Gal(b1-3)GlcNAc(b1-2)Man(a1-6)]Man(b1-4)GlcNAc(b1-4)GlcNAc
# Summary of the method: as §1
# [31] = target: Fuc(a1-2)[GalNAc(a1-3)]Gal(b1-3)GlcNAc(b1-2)Man(a1-3)[Fuc(a1-2)[GalNAc(a1-3)]Gal(b1-3)GlcNAc(b1-2)Man(a1-6)]Man(b1-4)GlcNAc(b1-4)[Fuc(a1-6)]GlcNAc
# Summary of the method: as §1
# [32] = target: Fuc(a1-2)[GalNAc(a1-3)]Gal(b1-3)GlcNAc(b1-3)GalNAc
# Summary of the method: as §1
# [33] = target: Fuc(a1-2)[GalNAc(a1-3)]Gal(b1-3)GlcNAc(b1-6)GalNAc
# Summary of the method: as §1
# [34] = target: Fuc(a1-2)[GalNAc(a1-3)]Gal(b1-4)Glc
# Summary of the method: as §1
# [35] = target: Fuc(a1-2)[GalNAc(a1-3)]Gal(b1-4)GlcNAc
# Summary of the method: as §1
# [36] = target: Fuc(a1-2)[GalNAc(a1-3)]Gal(b1-4)GlcNAc(b1-2)Man
# Summary of the method: as §1
# [37] = target: Fuc(a1-2)[GalNAc(a1-3)]Gal(b1-4)GlcNAc(b1-2)Man(a1-3)[Fuc(a1-2)[GalNAc(a1-3)]Gal(b1-4)GlcNAc(b1-2)Man(a1-6)]Man(b1-4)GlcNAc(b1-4)GlcNAc
# Summary of the method: as §1
# [38] = target: Fuc(a1-2)[GalNAc(a1-3)]Gal(b1-4)GlcNAc(b1-2)Man(a1-3)[Fuc(a1-2)[GalNAc(a1-3)]Gal(b1-4)GlcNAc(b1-2)Man(a1-6)]Man(b1-4)GlcNAc(b1-4)[Fuc(a1-6)]GlcNAc
# Summary of the method: as §1
# [39] = target: Fuc(a1-2)[GalNAc(a1-3)]Gal(b1-4)GlcNAc(b1-3)Gal(b1-4)GlcNAc
# Summary of the method: as §1
# [40] = target: Fuc(a1-2)[GalNAc(a1-3)]Gal(b1-4)GlcNAc(b1-3)Gal(b1-4)GlcNAc(b1-3)Gal(b1-4)GlcNAc
# Summary of the method: as §1
# [41] = target: Fuc(a1-2)[GalNAc(a1-3)]Gal(b1-4)GlcNAc(b1-3)GalNAc
# Summary of the method: as §1
# [42] = target: Fuc(a1-2)[GalNAc(a1-3)]Gal(b1-4)GlcNAc(b1-3)[Fuc(a1-2)[GalNAc(a1-3)]Gal(b1-4)GlcNAc(b1-6)]GalNAc
# Summary of the method: as §1
# [43] = target: Fuc(a1-2)[GalNAc(a1-3)]Gal(b1-4)GlcNAc(b1-6)GalNAc
# Summary of the method: as §1
# [44] = target: Fuc(a1-2)[GalNAc(a1-3)]Gal(b1-4)[Fuc(a1-3)]GlcNAc
# Summary of the method: as §1
# [45] = target: Fuc(a1-2)[GalNAc(a1-3)]Gal(b1-4)[Fuc(a1-3)]GlcNAc(b1-3)GalNAc
# Summary of the method: as §1
binder,measurement,setting,value
GSL-I (Griffonia simplicifolia) (protein) FNLPNFWSDVKDNIIFQGDANTTAGTLQLCKTNQYGNPLQYRAGRALYSDPVQLWDNKTGSVASFYTEFTFFLKITGDGPADGLAFFLAPPDSDVKDAGAYLGLFNKSTATQPSKNQVVAVEFDTWKNTDFPEPSYRHIGINVNSIVSVATKRWEDSDIFSGKIATARISYDGSAKILTVVLSYPDGADYILSHSVDLSKNLPNPIRVGISASTGANQFLTVYVLSWRFSSALQSTSVNAAMGPEIIRTVV,glycan array binding signal (z-score),[1],-0.291
same,glycan array binding signal (z-score),[2],-0.176
same,glycan array binding signal (z-score),[3],-0.208
same,glycan array binding signal (z-score),[4],-0.216
same,glycan array binding signal (z-score),[5],-0.3
same,glycan array binding signal (z-score),[6],0.172
same,glycan array binding signal (z-score),[7],-0.076
same,glycan array binding signal (z-score),[8],-0.191
same,glycan array binding signal (z-score),[9],0.063
same,glycan array binding signal (z-score),[10],0.039
same,glycan array binding signal (z-score),[11],-0.181
same,glycan array binding signal (z-score),[12],-0.134
same,glycan array binding signal (z-score),[13],-0.281
same,glycan array binding signal (z-score),[14],-0.099
same,glycan array binding signal (z-score),[15],0.085
same,glycan array binding signal (z-score),[16],-0.253
same,glycan array binding signal (z-score),[17],0.691
same,glycan array binding signal (z-score),[18],-0.128
same,glycan array binding signal (z-score),[19],-0.175
same,glycan array binding signal (z-score),[20],-0.604
same,glycan array binding signal (z-score),[21],-0.15
same,glycan array binding signal (z-score),[22],-0.11
same,glycan array binding signal (z-score),[23],0.306
same,glycan array binding signal (z-score),[24],0.052
same,glycan array binding signal (z-score),[25],0.336
same,glycan array binding signal (z-score),[26],0.774
same,glycan array binding signal (z-score),[27],-0.239
same,glycan array binding signal (z-score),[28],-0.221
same,glycan array binding signal (z-score),[29],-0.175
same,glycan array binding signal (z-score),[30],-0.248
same,glycan array binding signal (z-score),[31],-0.206
same,glycan array binding signal (z-score),[32],0.545
same,glycan array binding signal (z-score),[33],-0.322
same,glycan array binding signal (z-score),[34],-0.065
same,glycan array binding signal (z-score),[35],0.486
same,glycan array binding signal (z-score),[36],0.033
same,glycan array binding signal (z-score),[37],0.123
same,glycan array binding signal (z-score),[38],-0.155
same,glycan array binding signal (z-score),[39],0.123
same,glycan array binding signal (z-score),[40],0.34
same,glycan array binding signal (z-score),[41],-0.288
same,glycan array binding signal (z-score),[42],0.012
same,glycan array binding signal (z-score),[43],0.92
same,glycan array binding signal (z-score),[44],0.325
same,glycan array binding signal (z-score),[45],-0.031
